Measured values taken from paper PMC7819943, “Rice protein-binding microarrays: a tool to detect cis-acting elements near promoter regions in rice”.
Some of the results follow.

Molecular target: T1, OsWOX13 (Oryza sativa, UniProt Q5QMM3 1-267)
T1 sequence: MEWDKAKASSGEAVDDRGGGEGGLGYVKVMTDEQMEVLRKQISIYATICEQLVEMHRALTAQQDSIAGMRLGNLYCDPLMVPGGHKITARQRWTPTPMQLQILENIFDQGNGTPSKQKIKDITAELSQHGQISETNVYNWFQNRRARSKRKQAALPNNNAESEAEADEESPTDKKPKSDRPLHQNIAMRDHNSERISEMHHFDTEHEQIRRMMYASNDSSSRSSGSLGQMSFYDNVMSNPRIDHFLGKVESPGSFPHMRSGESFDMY
Experiment: protein-binding microarray (RPBM); PBS, 2% BSA, 51.3 ng/ul salmon testes DNA, 50 uM zinc acetate, 200 nM TF, 25 C, 1 h; high values mean tight binding
Conditions: protein: recombinant; tags: N-terminal polyhistidine and DsRed monomer fusion (pET32a); label: CyDye5-dUTP incorporated in the synthesized complementary strand; 3' TTTTT single-stranded linker to array surface; dsDNA, one strand shown
Summary of the method: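 The binding signal is fluorescence intensity per feature, in arbitrary units, read on an Axon 4000B scanner. Polyhistidine- and DsRed-tagged transcription factors (N-terminal fusions) from E. coli BL21-CodonPlus were purified on Ni–NTA and applied at 200 nM for 1 h at 25 °C to a double-stranded, BSA-blocked custom Agilent array in buffer with 50 µM zinc acetate.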

Sequence	binding signal
AAGTTAAACTGTTTCAAGTTTGATTGACTTTGTAGACAAACGGAGTCACCTAGTGCAG	15100 fluorescence intensity (a.u.)
GTTGCATGATTAAACGAATTGACACGTCCTGAACCCGATTCGGAGTCACCTAGTGCAG	22100 fluorescence intensity (a.u.)
GCATCACCAATCATCATTTTAAGGTAGTGAACTCTATCATCGGAGTCACCTAGTGCAG	9670 fluorescence intensity (a.u.)
TATTAACTGTTTTGTTTGGTTAAGAGACATGGGAATTTTGCGGAGTCACCTAGTGCAG	5000 fluorescence intensity (a.u.)
CGACGTCGATGATTGGCTCCGTCGCACTTGTCGACAGGAACGGAGTCACCTAGTGCAG	20700 fluorescence intensity (a.u.)
CTGGTTTCATTTTAATTGACGTTTTGGACAATGACACGGTCGGAGTCACCTAGTGCAG	29000 fluorescence intensity (a.u.)
GCTGACGAGGAAGAAGGTCTGTTGCAGTTATTCCTGGTGTCGGAGTCACCTAGTGCAG	3290 fluorescence intensity (a.u.)
ATCAATAATCATTCGTAGCGAAATTATTTTCTCCCGATATCGGAGTCACCTAGTGCAG	5010 fluorescence intensity (a.u.)
ATGATATACTTGATTTTGTAGCTAGGCCCTATTCGAGTTCCGGAGTCACCTAGTGCAG	8700 fluorescence intensity (a.u.)
ATAATTGATCACTAAGAATATGATCAGTCGCCGCCATTGACGGAGTCACCTAGTGCAG	31000 fluorescence intensity (a.u.)
CCCTAATTATTGGATGATTACAGGTGTGTTAACACTAACACGGAGTCACCTAGTGCAG	33400 fluorescence intensity (a.u.)
AATCTGCAATTATCAGGATTGACGAGAGAATCAAAGACCTCGGAGTCACCTAGTGCAG	17900 fluorescence intensity (a.u.)
ACTTACACAGTAATTACACCTCACTTACACCCGCTTACACCGGAGTCACCTAGTGCAG	4370 fluorescence intensity (a.u.)
TTTGCTAATGAAGGATTAATTAGACTTAATAAATTCGTCTCGGAGTCACCTAGTGCAG	20600 fluorescence intensity (a.u.)
GCCTATTGCATAATTGCACAAACGACGACGAGCAGCAGCACGGAGTCACCTAGTGCAG	3660 fluorescence intensity (a.u.)
AAACAAATTTGCTGACTAGGATTCCACGTCAGCGAAACCACGGAGTCACCTAGTGCAG	7980 fluorescence intensity (a.u.)
TAAAATTAGAAACAATTGGATGATAAAGTTCAGTCTTTCACGGAGTCACCTAGTGCAG	8150 fluorescence intensity (a.u.)
TCTATATAATTAATGGAGTAATTTATACAAGCTAGAGCGCCGGAGTCACCTAGTGCAG	27800 fluorescence intensity (a.u.)
TCTCTAAATTTCTTCCAAATGGAATTATTCTAAGTTGAATCGGAGTCACCTAGTGCAG	4080 fluorescence intensity (a.u.)
CATGATTTTGGCATGGCACTTAACCCCAAATATTGTGGCTCGGAGTCACCTAGTGCAG	16900 fluorescence intensity (a.u.)
TTGAGATTGGATTCCAAAACTGGTGCATTAAAGTATAATTCGGAGTCACCTAGTGCAG	11000 fluorescence intensity (a.u.)

Sequence	binding signal
CCAGCCAATCAGAACCCAACTTGCCAACTCCTGGTCATAACGGAGTCACCTAGTGCAG	17100 fluorescence intensity (a.u.)
TACTAACTGACGGTTTGCCTCCTCCTTGTTATCGCCGACGCGGAGTCACCTAGTGCAG	13000 fluorescence intensity (a.u.)
CGCCTCATCTTTGGTTAATTGTGTTCCGGTTCAGGCTATTCGGAGTCACCTAGTGCAG	4650 fluorescence intensity (a.u.)
ATGTAAATTACTTTTAGGCTTTATTGAATTACTTTTATATCGGAGTCACCTAGTGCAG	7630 fluorescence intensity (a.u.)
CCTAACTGACTGACACGTGAACCCGTAACTCGTGGATCCCCGGAGTCACCTAGTGCAG	33100 fluorescence intensity (a.u.)
CAAATACAAATTATCTCAAATACGAATAAGGATCGAATATCGGAGTCACCTAGTGCAG	3240 fluorescence intensity (a.u.)
CTCACCAATTAAACAACACCATTAACCACCACCCCATCTACGGAGTCACCTAGTGCAG	8330 fluorescence intensity (a.u.)
GATAATAGTTTACTCGTTGATTAATCCAATTCGTAATACACGGAGTCACCTAGTGCAG	12600 fluorescence intensity (a.u.)
AAAATTGACAATAATCCAAACAACCGTACTGTACCAAAACCGGAGTCACCTAGTGCAG	19400 fluorescence intensity (a.u.)
CATTAATTCTCCAAACATATATTGATAAAATCTTTCAAAACGGAGTCACCTAGTGCAG	3470 fluorescence intensity (a.u.)
TAGACTAGATTTATCTATTTATTTTGATAGTGGGGAAGTACGGAGTCACCTAGTGCAG	7180 fluorescence intensity (a.u.)
GCTAAAATTTATGAACTGAAACTGGAATTCCCTCAAACAGCGGAGTCACCTAGTGCAG	5990 fluorescence intensity (a.u.)
AATAACAAATTCCTAATTGCCACATTTTAAAAGTGACAAACGGAGTCACCTAGTGCAG	14900 fluorescence intensity (a.u.)
TCCATATTTGATTATTTTCAACGTTACTCCTCTAGTGCCTCGGAGTCACCTAGTGCAG	21100 fluorescence intensity (a.u.)
GCATAAATTGACTATTAGATTGAGTATAAATGAATTGGAGCGGAGTCACCTAGTGCAG	51600 fluorescence intensity (a.u.)
TGATAAATTTAGAAATATCAATTTTACATGATTTATCTTTCGGAGTCACCTAGTGCAG	14900 fluorescence intensity (a.u.)
TCACCAATCATGACAAACAACGGCACCACGCAACTAAGAACGGAGTCACCTAGTGCAG	12400 fluorescence intensity (a.u.)
AAGATTGCCAGTTGATATGCGGGGTCTACATGGGTCCCACCGGAGTCACCTAGTGCAG	19200 fluorescence intensity (a.u.)
GGTTAATTTATTTTGAGACAGATGGAGTAACTCAATGAGCCGGAGTCACCTAGTGCAG	41300 fluorescence intensity (a.u.)
ATAACGAACGGATGAGATTGATCGCTACAATACTCTAGAGCGGAGTCACCTAGTGCAG	4050 fluorescence intensity (a.u.)
GGAGAGTGATTTAAATCTGAAAAGAAGTAAGATCTCTTTCCGGAGTCACCTAGTGCAG	8610 fluorescence intensity (a.u.)
